# Test results from PubChem BioAssay AID651568 (National Center for Advancing Translational Sciences (NCATS), 2012).
# About 55 (5%) of roughly 1,200 compounds were called active. Roughly 15% stayed inconclusive and do not appear here. Calls follow the shape of the dose curve; as a rule, active = well fitted inhibition curve with a large enough effect; inconclusive = small, poorly fitted or top-dose-only effect; inactive = no such curve, though single readings can be large or run the other way. The list shows a part of the results.
# Assay: qHTS Assay to Find Inhibitors of Chronic Active B-Cell Receptor Signaling: Hit Validation in Renilla Reporter Assay; also: nearly all actives have a fitted effect of over 70% in size
# Details: TMD8 IkB-Renilla luciferase reporter, NF-kB signaling; series mostly up to 57.5 µM; activity change, negative = inhibition: at the top concentration
# Summary of the method: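 Dual-Glo luminescence read-out of constitutively expressed IkB-Photinus/Renilla luciferase reporters in ABC-DLBCL lines, used to retest primary hits; reporter enzymes differ from the click beetle luciferases used in the primary screen.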
# % is scaled to controls: 0 for no effect and ±100 for the full control effect; potency is read from the fitted curve at half-maximal effect.
Structure (SMILES),"activity change, negative = inhibition",Potency
COc1cc(C(=O)N/N=C/c2sccc2C)cc(OC)c1OC,inactive: -0.336%,
CCCCC[C@H](O)/C=C/[C@@H]1[C@@H](C/C=C\CCCC(=O)O)[C@@H](O)C[C@H]1O,inactive: -7.9%,
Cc1cc(C)c2nc3sc(C(=O)N4CCOCC4)c(N)c3cc2c1,inactive: -12.7%,
COc1ccc(CCNC(=O)c2cnc3scc(C)n3c2=O)cc1OC,inactive: -10.9%,
CCN(CC)C(=S)NC(=O)c1ccc(F)cc1,inactive: 1.9%,
CCOc1cc(/C=C2\CN(C)C/C(=C\c3ccc(O)c(OCC)c3)C2=O)ccc1O,,active: 5.36 µM
CCOC(=O)c1c(C)oc2c1cc(NS(=O)(=O)c1ccc(C(=O)O)cc1)c1ccccc12,inactive: -1.1%,
COc1ccccc1-c1nnc(Nc2nc3c(OC)cccc3s2)o1,inactive: -25.9%,
CC1=C(C(=O)Nc2ccc(CC(=O)NCc3ccc(OC(C)C)cc3)cc2)SCCO1,inactive: -7.74%,
CCc1ccc(NC(=O)C(C)OC(=O)/C=C/c2ccc(O)c(OC)c2)cc1 (stereo not drawn),inactive: -16.3%,
COc1cc(C(=O)N/N=C(\C)Cc2ccccc2)cc(OC)c1OC,inactive: -0.748%,
CCCSc1nc(C)c(C(C)=O)cc1C#N,inactive: -8.83%,
COCCN(Cc1cc2cc(C)cc(C)c2nc1Cl)C(=O)Nc1ccccc1,inactive: 10.9%,
CCOc1ccc(OCc2ccc(C(=O)N/N=C(\C)c3ccccn3)cc2)cc1,inactive: -3.8%,
CCOC(=O)c1ccc(-c2c(-c3cc(OC)c(OC)c(OC)c3)noc2C)cc1F,inactive: -17.6%,
COc1cc(/C=C/c2ccc3cccc(O)c3n2)cc(OC)c1OC,inactive: -22%,
S=C(Nc1ccccn1)c1ccccn1,inactive: -26.7%,
CCOc1ccccc1N1CSC2=C(C#N)C(c3c(OC)ccc4ccccc34)CC(=O)N2C1 (stereo not drawn),inactive: -24.8%,
CCCNC(=O)c1ccc(-c2nn(C)c(=O)c3ccccc23)cc1,inactive: -1.09%,
Cc1c(CCC(=O)N2CCC(C(=O)O)(c3ccccc3)CC2)c(=O)oc2cc3oc4c(c3cc12)CCCC4,inactive: -15%,
COc1cc(NC(=O)COC(=O)Cc2ccc(-c3ccccc3)cc2)cc(OC)c1,inactive: -10.2%,
Oc1ccccc1-n1c(-c2ccccc2)ccc1-c1ccccc1,inactive: -21.9%,
COc1cc(C(=O)N/N=C/C2CC=CCC2)cc(OC)c1OC (stereo not drawn),inactive: 9.85%,

Structure (SMILES),"activity change, negative = inhibition",Potency
Cc1cc(C)c2nc(C(F)(F)F)nc(NCCCN3CCOCC3)c2c1,inactive: -1.78%,
COc1cc(S(=O)(=O)N2CCCCC2)ccc1NC(=O)/C=C/c1ccccc1,inactive: 4.68%,
COc1ccc(C2=Nn3c(nnc3-c3ccc(OC)cc3)SC2)cc1,inactive: 11.9%,
O=C(OCC(=O)c1ccc[nH]1)c1ccc(Cl)c(Cl)c1,inactive: -0.0787%,
CCC1=Nc2cc(C(=O)NCc3cccnc3)ccc2Sc2ccc(C)cc21,inactive: 2.12%,
CCOc1cccc(C2CC(=O)Nc3cc(OC)c(OC)cc32)c1 (stereo not drawn),inactive: 5.18%,
CCN(CC(=O)NCc1ccc(F)cc1)C(=O)/C=C/c1ccc(OC)c(S(=O)(=O)NC(C)C)c1,inactive: -3.39%,
COc1cc2c(cc1OC)-c1cc(NC3CCCC3)nc(=O)n1CC2,inactive: -1.28%,
COC(=O)c1cc(C(=O)N2CCN(c3cccc(Cl)c3)CC2)cc([N+](=O)[O-])c1,inactive: -0.459%,
Cc1cc(C(N)=O)nn1-c1c(Cl)cc(Cl)cc1Cl,inactive: 0.801%,
CCOc1ccc(S(=O)(=O)Nc2cc(OC)ccc2OC)cc1,inactive: 21.9%,
COc1cccc(N2CCN(C(=O)c3ccc(CS(=O)c4ccc(Cl)cc4)o3)CC2)c1 (stereo not drawn),inactive: -26.8%,
COc1ccc(C2CC(c3c(O)cc(C)oc3=O)=NCCS2)c(OC)c1 (stereo not drawn),inactive: -16.9%,
CC1=CC(C)(C)N2C(=O)C(=O)c3cc(OC(=O)c4ccco4)cc1c32,inactive: 2.98%,
CC(C)n1c(SCC(=O)Nc2ccccc2)nc2c1c(=O)n(C)c(=O)n2C,inactive: -2.3%,
CCN1C(=O)c2cccc3c(S(=O)(=O)Nc4nc(C)cs4)ccc1c23,inactive: -19.2%,
CC(C)N1C(=O)/C(=C\c2nc3ccccc3c(=O)[nH]2)c2ccccc21,,active: 23.9 µM
COc1cc2c(cc1OC)C(/C(C#N)=N\O)=NC(C)(C)C2,inactive: 2.79%,
Cc1c(NC(=S)NC(=O)C(c2ccccc2)c2ccccc2)cccc1C(=O)O,inactive: -15.6%,
OCc1ccnc2c(O)cccc12,inactive: 9.15%,
COc1ccccc1-c1cc(C(=O)Nc2cccnc2)no1,inactive: -1.55%,
CCONC(=O)Nc1ccccc1[N+](=O)[O-],inactive: 0.531%,
CCCCn1c(SCC(=O)c2cc(OC)ccc2OC)nc2cc(S(N)(=O)=O)ccc21,inactive: -0.961%,

Structure (SMILES),"activity change, negative = inhibition",Potency
COc1cc(-c2noc(C)c2/C=C/c2ccc(N)cc2)cc(OC)c1OC,inactive: -22.7%,
Cc1c(CCC(=O)O)c(=O)oc2cc3oc4c(c3cc12)CCCC4,inactive: -13.6%,
C/C(=N/NC(=O)COc1cc(C)ccc1C(C)C)C(=O)O,inactive: -3.63%,
CCCCN(C(=O)CSc1nc2ccccc2n1CC)C1CCS(=O)(=O)C1 (stereo not drawn),inactive: 1.42%,
CCCCn1c(-c2csc(C(C)C)c2)n[nH]c1=S,inactive: -0.83%,
COc1cc(/C=N/NC(=O)NC2CCCCC2)ccc1O,inactive: 0.432%,
CC1(C)Cc2c(sc3ncnc(NNC(=S)NCc4ccccc4)c23)CO1,inactive: -1.15%,
COc1cc2c(cc1[N+](=O)[O-])n(C(C)C)c(=O)n2C(C)C,inactive: 2.57%,
CCOc1c(Cl)cc(CNCC(C)C)cc1OC,inactive: 2.79%,
CC(C)COc1ccc(C(=O)Nc2cc(S(=O)(=O)N3CCOCC3)ccc2N2CCCC2)cc1,inactive: 11.9%,
Cc1cccc(NC(=S)N/N=C/C(C)c2ccccc2)c1C (stereo not drawn),inactive: 4.68%,
CCN(CC)c1ccc2c(C)c(CO)c(=O)oc2c1,inactive: 0.882%,
N#Cc1c(NC(=O)/C=C/c2ccco2)sc2c1CCCC2,inactive: -2.56%,
Cc1ncc(CO)c2c1Oc1nc(-c3ccccc3)nc(SCC(=O)N3CCOCC3)c1C2,inactive: -17.2%,
COCCNC(=S)N/N=C(\C)c1ccc(Cl)s1,inactive: -0.528%,
CC[C@]12c3[nH]c4cc(CCC(=O)N(C)C)ccc4c3CCN1C(=O)[C@@H](CC(=O)NCc1ccco1)C[C@@H]2C(=O)N1CCN(C(=O)c2ccco2)CC1,inactive: 7.44%,
CCOc1c(OC)cccc1C1CC(=O)Nc2cc(OC)c(OC)cc21 (stereo not drawn),inactive: 9.77%,
Cc1cc(C(=O)N/N=C/c2ccc(N(C)C)cc2)c2ccccc2n1,inactive: 0.431%,
C/C(=N\NC(=O)C(C)n1nc(C)c([N+](=O)[O-])c1C)c1ccccc1O (stereo not drawn),inactive: -3.57%,
CC1CCCCN1C(=S)NC(=O)c1cccs1 (stereo not drawn),inactive: 6.78%,
CCOc1ccc(CCNC(=O)c2cc(=O)[nH]c3ccc(S(=O)(=O)N4CCCCC4C)cc23)cc1OCC (stereo not drawn),inactive: 5.04%,
C=CCOc1ccc2ccccc2c1CNn1c(C)n[nH]c1=S,inactive: 8.77%,
